Laboratory results from PMC4336329 (PLoS ONE, 2015).
The whole screen tested about 310,000 compounds, of which about 2,200 (0.71%) showed an effect of 50% or more. Effects have a minus sign here. The list shows a part of the results.

What follows are molecules tested against human ether-à-go-go-related gene (hERG) potassium channel (human, UniProt Q12809) (assay: primary screen, population patch clamp on CHO cells stably expressing hERG).
human ether-à-go-go-related gene (hERG) potassium channel, sequence (Q12809 whole entry, looked up): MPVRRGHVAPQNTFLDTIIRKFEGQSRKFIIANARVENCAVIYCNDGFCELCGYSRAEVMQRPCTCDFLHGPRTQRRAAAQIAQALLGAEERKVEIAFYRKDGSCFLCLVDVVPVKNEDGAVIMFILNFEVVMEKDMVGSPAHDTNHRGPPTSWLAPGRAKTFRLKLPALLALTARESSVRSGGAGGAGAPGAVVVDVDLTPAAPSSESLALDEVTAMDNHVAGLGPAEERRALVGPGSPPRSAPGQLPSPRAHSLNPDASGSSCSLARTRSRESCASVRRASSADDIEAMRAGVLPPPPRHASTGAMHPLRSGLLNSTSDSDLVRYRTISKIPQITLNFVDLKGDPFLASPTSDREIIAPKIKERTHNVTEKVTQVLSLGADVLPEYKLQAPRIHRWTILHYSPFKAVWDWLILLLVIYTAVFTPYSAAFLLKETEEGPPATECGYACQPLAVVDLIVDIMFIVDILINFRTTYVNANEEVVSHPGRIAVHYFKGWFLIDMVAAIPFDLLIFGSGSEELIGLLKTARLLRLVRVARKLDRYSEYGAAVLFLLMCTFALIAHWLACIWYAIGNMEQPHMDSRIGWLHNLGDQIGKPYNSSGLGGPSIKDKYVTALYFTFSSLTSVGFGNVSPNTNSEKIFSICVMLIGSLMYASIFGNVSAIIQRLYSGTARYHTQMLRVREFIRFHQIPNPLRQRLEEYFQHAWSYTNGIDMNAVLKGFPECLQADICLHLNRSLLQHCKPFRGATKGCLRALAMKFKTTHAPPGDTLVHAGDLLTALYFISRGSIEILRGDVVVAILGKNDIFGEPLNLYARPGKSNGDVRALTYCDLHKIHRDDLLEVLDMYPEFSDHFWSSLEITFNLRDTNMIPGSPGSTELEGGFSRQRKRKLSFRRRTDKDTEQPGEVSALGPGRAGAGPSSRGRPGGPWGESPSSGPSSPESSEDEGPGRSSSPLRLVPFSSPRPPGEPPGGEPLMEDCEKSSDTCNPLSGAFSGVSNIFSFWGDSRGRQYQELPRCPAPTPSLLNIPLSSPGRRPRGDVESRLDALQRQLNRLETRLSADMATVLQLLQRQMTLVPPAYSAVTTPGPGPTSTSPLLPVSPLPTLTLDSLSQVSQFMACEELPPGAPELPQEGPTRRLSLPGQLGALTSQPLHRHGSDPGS

| SMILES | hERG current change (%, negative = inhibition) at 1uM [%] |
| --- | --- |
| O=C1N=c2ccccc2=C1c1c(O)n(-c2cccc(F)c2)[nH]c1=O | 6.7 |
| COCC(C)n1c(SCC(=O)NC(=O)Cc2ccccc2)nc2ccccc2c1=O (stereo not drawn) | 10.7 |
| CCC(C)NCCOc1cc(C)cc(C)c1C.O=C(O)C(=O)O (stereo not drawn) | 7.99 |
| COC(=O)c1cc(S(=O)(=O)N(C)Cc2ccco2)c[nH]1 | 8.26 |
| C=CCNC(=O)c1sc(SC)cc1-c1ccc(Cl)cc1 | -8.83 |
| Cc1ccc(CC2SC(N)=NC2=O)cc1 (stereo not drawn) | 11.6 |
| CCOc1cc(C(c2c(O)nc(SC)[nH]c2=O)c2c(O)nc(SC)[nH]c2=O)ccc1O | 16.4 |
| O=C(COC(=O)c1ccc(F)cc1)Nc1cc(S(=O)(=O)N2CCOCC2)ccc1N1CCCC1 | -4.33 |
| CCc1nnc(NC(=O)CSc2nc(C3CCCCC3)nc3ccccc23)s1 | 4.49 |
| COc1ccccc1OCC(=O)NCCc1nc2ccccc2[nH]1 | 9.88 |
| Cn1c(C(=O)Nc2ccccc2)cc2sccc21 | 12.5 |
| CCn1c(/C=C/c2ccccc2[N+](=O)[O-])nc2ccccc2c1=O | 7.78 |
| COc1cccc(=O)c2c(C)n(-c3cc(C)cc(C)c3)c(C)c12 | 5.71 |
| Cc1cccc(C)c1NC(=O)CSc1nc(C2CC2)nc2ccccc12 | 13.2 |
| COc1cc(N2C(=O)C=CC2=O)c(OC)cc1Cl | 13.5 |
| Fc1ccccc1CNCCc1c[nH]c2ccccc12.O=C(O)C(=O)O | 7.97 |
| Cc1ccc(S(=O)(=O)N2CCCC(C(=O)NC3CC3)C2)cc1 (stereo not drawn) | 7.78 |
| Cc1csc2c(=O)sc(NC(=O)c3ccc(F)cc3)nc12 | 8.23 |
| COc1cc(OC)c(NC(=O)c2c(-c3ccccc3)noc2C)cc1Cl | 4.68 |
| CCCOC(=O)c1ccc(Oc2c(-c3ccc(O)cc3O)n[nH]c2C)cc1 | -3.83 |
| C=CCSc1nc(NC)c2sccc2n1 | -20.2 |
| CCn1c(C)nc2cc(C(=O)N/N=C/c3ccc(N4CCOCC4)cc3)ccc21 | 15.5 |
| CCn1c(=O)n(CC)c2cc(N)ccc21.Cl | 23.7 |

| SMILES | hERG current change (%, negative = inhibition) at 1uM [%] |
| --- | --- |
| Cc1cccc(NC(=O)c2cccc(C(F)(F)F)c2)c1 | 7.48 |
| Cc1cc(C)cc(N2C(=O)CC(n3ccnc3)C2=O)c1 (stereo not drawn) | 6.75 |
| COc1ccccc1C1CCCN1Cc1nc(-c2cc3c(cc2Cl)OCO3)oc1C (stereo not drawn) | 1.7 |
| CCCCc1cc(=O)oc2cc(OCc3nn[nH]n3)c(Cl)cc12 | 9.53 |
| CCOC(=O)N1CCN(C(=O)c2cc3c(s2)-c2c(C)cccc2OC3)CC1 | -0.514 |
| O=S(=O)(c1ccc2ccccc2c1)N1CCC(c2nc(-c3ccncc3)no2)CC1 | 0.633 |
| O=c1c2cn[nH]c2[nH]c(=S)n1-c1cccc2ccccc12 | -0.557 |
| Clc1ccc(Cn2nnc(-c3ccccc3)n2)cc1 | 16.7 |
| CCOCCCNC(=O)C(c1ccc(C)cc1)N(Cc1ccc2c(c1)OCO2)C(=O)c1ccccn1 (stereo not drawn) | -8.51 |
| CC(C)O.CCc1nnc(NS(=O)(=O)c2ccc(NC(=O)C(c3ccccc3)c3ccccc3)cc2)s1 | 6.13 |
| CCCCC(=O)Nc1cc(OCC)c(NC(=S)NC)cc1OCC | 3 |
| Cc1ccccc1C(=O)N1CCC(C(=O)N(C)CCOc2ccccc2)CC1 | 13.6 |
| CCOC(=O)N1CCN(CC(=O)c2ccc(O)c(C)c2O)CC1 | 18.4 |
| CN(C)c1ccc(/C=c2\sc3n(c2=O)CCCN=3)cc1 | 4.95 |
| COc1ccc(CN(CC2CCCO2)C(=O)CN2C(=O)C(C)Oc3ccc(C)cc32)cc1OC (stereo not drawn) | 1.34 |
| CN1C(=O)C(C)(C)c2cc(S(=O)(=O)N3CCN(c4cccc(Cl)c4)CC3)ccc21 | 2.24 |
| C[C@@H](C(=O)NCc1ccccc1)N1C(=O)C2CC=CCC2C1=O (stereo partly drawn) | 4.46 |
| O=S1(=O)CCO[C@H]2Cc3ccccc3[C@H]2N1Cc1ccc(F)cc1 | -11.8 |
| CC(=O)c1c(C)[nH]c(C(=O)O)c1C | 9.2 |
| Cc1ccc(-c2nnn(CC(=O)N(Cc3ccco3)C(C(=O)NC(C)(C)C)c3ccncc3)n2)o1 (stereo not drawn) | 6.8 |
| Cc1ccccc1C(=O)Nc1ccc(CN2CCOCC2)cc1 | 9.27 |
| CC(=O)N(Cc1ccc(F)cc1)Cc1nc2ccccc2c(=O)[nH]1 | -3.99 |
| CCOC(=O)c1cccnc1SCC(=O)NC(C)CC (stereo not drawn) | 13.7 |

| SMILES | hERG current change (%, negative = inhibition) at 1uM [%] |
| --- | --- |
| CCOC(=O)N1CCN(S(=O)(=O)c2ccc3c(c2)C(C)C(=O)N3)CC1 (stereo not drawn) | 3.41 |
| CCCCNC(=S)Nc1cccc2cnccc12 | 1.29 |
| COCC1CCN(C(=O)CCc2nnc(C3(c4ccc(Cl)cc4)CCC3)o2)CC1 | 1.48 |
| CC1(C)CC(=O)C(C(=O)/C=C/c2ccco2)C(=O)C1 | 13.8 |
| COCc1cc(C)c(C#N)c(=S)[nH]1 | -12.8 |
| CC1Cc2ccccc2N1C(=O)Cn1cc([N+](=O)[O-])cn1 (stereo not drawn) | 3.64 |
| Cc1cc2nc3c(c(C(F)(F)F)n2n1)CCCC3 | 13 |
| CCN(CC)CCN(C(=O)/C=C/c1cccs1)c1nc2ccc(C)cc2s1.Cl | 2.14 |
| O=C1c2ccccc2C(O)(c2ccccc2)N1c1ccncc1 (stereo not drawn) | 9.69 |
| COc1cc(C(C)=O)ccc1Oc1ccc(S(=O)(=O)N2CCOCC2)cn1 | 12.5 |
| COc1ccc(NC(=O)Cn2nnc(C(=O)NCc3cccs3)c2N)cc1OC | 13.5 |
| CCN(CCCCCN(C)C)Cc1cc2ccccc2o1.Cl | 20 |
| COC(=O)c1ccc(NC(=S)NC2CCc3ccccc32)cc1 (stereo not drawn) | 15.9 |
| [O-]/C(=C(\C(=S)NCc1ccco1)[n+]1ccccc1)c1ccccc1Br | 6.24 |
| CCc1ccccc1NC(=S)N(CCN(C)C)C(C)c1ccccn1 (stereo not drawn) | -7.96 |
| CCOC(=O)COc1ccc2c(c1)C(=O)CC1(CCCCC1)O2 | 7.98 |
| CN1CCN(CC(=O)N2N=C(c3cccs3)CC2c2ccco2)CC1 (stereo not drawn) | -3.23 |
| CNS(=O)(=O)c1ccc(Oc2ccc(S(=O)(=O)NC)cc2)cc1 | 12.4 |
| CN1CCN(c2c([N+](=O)[O-])cnc3ccccc23)CC1.Cl | 5.69 |
| CCn1ccnc1CN(C)C(=O)c1cc(COc2ccc(OC)c3ccccc23)on1 | 3.69 |
| Cc1ccc(-c2nnn(CC(=O)N(c3ccccc3)C(C(=O)NC3CCCC3)c3ccco3)n2)o1 (stereo not drawn) | -4.21 |
| CCOc1ccc2nc(NC(NC(=O)CC)(C(=O)OC)C(F)(F)F)sc2c1 (stereo not drawn) | -8.97 |
| O=C(CN1CCN(S(=O)(=O)c2cccc(Br)c2)CC1)N1CCCCC1 | -1.18 |

| SMILES | hERG current change (%, negative = inhibition) at 1uM [%] |
| --- | --- |
| O=C(Cc1ccc(Br)cc1)N1CCN(Cc2ccccc2)CC1 | 4.38 |
| CCOc1ccc(C(=S)N2CCN(C)CC2)cc1 | -84.3 |
| O=C(COc1ccc(C(=O)c2ccccc2)cc1)NC1CCCCCC1 | 3.59 |
| CC(C)c1oc(=O)cc2c1[C@@H](O)[C@H]1OC(=O)[C@@]3(C)CC[C@@H](O)[C@@]2(C)C13 (stereo partly drawn) | 6.93 |
| CCS(=O)(=O)N1CCCC(C(=O)NCc2cccc(OC)c2)C1 (stereo not drawn) | 1.18 |
| CCCCC(=O)NC(c1cccc([N+](=O)[O-])c1)c1c(OC(C)=O)ccc2ccccc12 (stereo not drawn) | -2.27 |
| Cc1cc(=O)oc(C)c1C(=O)Nc1cnc2ccccc2c1 | 2.7 |
| Cc1ccc(OCC(=O)NC2CCS(=O)(=O)C2)cc1 (stereo not drawn) | 4.41 |
| CN(Cc1ccccc1F)C(=O)CCCNC(=O)c1ccc(Cl)cc1 | -13.3 |
| CC(C)OCCCNC(=O)C(=O)N/N=C/c1ccc(OCc2ccccc2)cc1 | 12.5 |
| O=C(CSc1nnc(-c2ccc(Cl)cc2Cl)n1C1CCCCC1)NC1CCS(=O)(=O)C1 (stereo not drawn) | 3.43 |
| Cc1ccccc1C(=O)Oc1ccccc1C(=O)N1CCOCC1 | -3.11 |
| Cn1c(N)c(C(=O)COC(=O)/C=C/c2cccc(C(F)(F)F)c2)c(=O)n(C)c1=O | 2.1 |
| Cc1ccccc1Nc1nc(N)nc(-c2oc3ccccc3c2C)n1 | 10.5 |
| O=C1NC(=S)S/C1=C\c1ccc2ccccc2c1 | 5.02 |
| Cc1cccc(NC(=O)c2ccc3c(Cl)c4c(nc3c2)CCCC4)n1 | 4.82 |
| COc1ccc(N2C(=O)C3C4C=CC(C5CC45)C3C2=O)c([N+](=O)[O-])c1 (stereo not drawn) | 11.8 |
| COCCCN(CC(=O)Nc1ccc(N2CCOCC2)cc1)S(=O)(=O)c1ccc(Cl)cc1 | 5.96 |
| Cc1cc(C)n(-c2nc(C(F)(F)F)nc3ccccc23)n1 | 15 |
| CCOc1ccc(CNC(=O)C2CC(=O)N(C3CCCC3)C2)cc1OC (stereo not drawn) | 12.1 |
| CCOC(=O)CN1C(=O)S/C(=C/c2cccc([N+](=O)[O-])c2O)C1=O | 10.9 |
